The list shows a part of the results. Shown are side measurements of this screen, not its main read-out; they come without a call.

Experiment in all cases: Primary Screen for Target Class Profiling of Small Molecule Inhibitors of Methyltransferases
Assay [1] concerns the target Glycine N-methyltransferase (Homo sapiens) (UniProt Q14749). Particulars: purified enzyme, MTase-Glo SAH luminescence; measured here: GNMT inhibition; at 40 µM; stronger effect = lower value. In outline: (§1)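 Each enzyme was reacted with SAM and its substrate, with compounds tested once at 40 uM; SAH formed was read by MTase-Glo luminescence.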
Assay [2] deals with Guanidinoacetate N-methyltransferase (Homo sapiens) (UniProt Q14353). Conditions: purified enzyme, MTase-Glo SAH luminescence; measured here: GAMT inhibition; at 40 µM; stronger effect = lower value. Summed up: as §1
Assay [3] has as its target Histamine N-methyltransferase (Homo sapiens) (UniProt P50135). Conditions: purified enzyme, MTase-Glo SAH luminescence; measured here: HNMT inhibition; at 40 µM; stronger effect = lower value. In outline:
as §1

The target of assay [4] is Nicotinamide N-methyltransferase (Homo sapiens) (UniProt P40261). Particulars: purified enzyme, MTase-Glo SAH luminescence; measured here: NNMT inhibition; at 40 µM; stronger effect = lower value. In outline: as §1
Assay [5] deals with Phenylethanolamine N-methyltransferase (Homo sapiens) (UniProt P11086). Particulars: purified enzyme, MTase-Glo SAH luminescence; measured here: PNMT inhibition; at 40 µM; stronger effect = lower value. In outline: as §1
On the % scale 0 is the no-effect control and ±100 the full control effect.

`CCOC(=O)c1cccc(NS(=O)(=O)c2ccc3[nH]c(=O)[nH]c3c2)c1`: the activity change, negative = inhibition in assay [1] is -4.04%; in assay [2], 2.13%; in assay [3] it was -7.37%; in assay [4], -10.3%; in assay [5], -14.9%.
Regarding `NCCCCC(=O)O`, the activity change, negative = inhibition in assay [1] was -0.355%; in assay [2], 7.57%; in assay [3] it was 3.62%; in assay [4] it was -7.13%; in assay [5], -0.457%.
Turning to `CCCCN(CC)CCN1C(=O)c2cc3occc3n2CC1(C)C(=O)NC1CCCCCC1` (stereo not given), the activity change, negative = inhibition in assay [1] came out at 7.05%; in assay [2], 0%; in assay [3] it was 1.74%; in assay [4] it was 7.07%; in assay [5], 3.64%.
In the same order, the values of `O=C(NCC1CC1)C1CCc2ncc(-c3ccc(F)cc3)n2C1` (stereo not given) are -0.481%, -1.99%, -8.1%, -3.04% and 2.4%.
With `CC(C)=CCC[C@](C)(O[C@@H]1O[C@H](CO)[C@@H](O)[C@H](O)[C@H]1O)[C@H]1CC[C@]2(C)[C@@H]1[C@H](O)CC1[C@@]3(C)CC[C@H](O)C(C)(C)C3[C@@H](O[C@@H]3O[C@H](CO)[C@@H](O)[C@H](O)[C@H]3O[C@@H]3OC[C@@H](O)[C@H](O)[C@H]3O)C[C@]12C` (stereo not given in full), the activity change, negative = inhibition was 0% in assay [1]; -15% in assay [2]; 2.78% in assay [3]; -27.5% in assay [4]; -12.8% in assay [5].
In the same order, the values of `CC(C)[C@@H]1Nc2ccc(C(=O)O)cc2[C@@H]2C=CC[C@@H]21` are -26.2%, 2.34%, -0.735%, 6.93% and -6.66%.
In the same order, the values of `CC1CCN(S(=O)(=O)c2ccc3c(ccn3CC(=O)NCc3cccc(Cl)c3)c2)CC1` are 3.42%, 0%, 3.25%, -1.47% and -0.818%.
The like results for `CCC(C)NC(=O)c1ccc2c(=O)n(CC(C)C)c3nn(CC(=O)Nc4ccccc4C)c(=O)n3c2c1` (stereo not given) were, in that order, 5.42%, 0%, 11.8%, -0.163% and 1.07%.
Take `Cc1ccc(N2C(=O)c3nc4ccccc4n3CC2(C)C(=O)NC2CCC(C)CC2)cc1` (stereo not given): the activity change, negative = inhibition in assay [1] was -6.26%; in assay [2] it was -2.33%; in assay [3], 2.31%; in assay [4], -1.72%; in assay [5], -4.02%.
With `CC(C)(Oc1ccc(CCNC(=O)c2ccc(Cl)cc2)cc1)C(=O)O`, the activity change, negative = inhibition is 0.062% in assay [1]; 14.4% in assay [2]; 7.97% in assay [3]; -6.44% in assay [4]; 2.02% in assay [5].
In the same order, the values of `OCCN1CCN(CCCN2c3ccccc3Sc3ccc(C(F)(F)F)cc32)CC1` are -7.3%, 3.8%, -3.92%, -37.4% and 4.02%.
The like results for `O=C(CCn1ccc2cc(S(=O)(=O)N3CCCCC3)ccc21)NCc1cccnc1` were, in that order, 3.66%, 2.82%, 6.68%, 2.64% and 2.91%.
For the compound `CCCCNC(=O)Cn1ccc2cc(S(=O)(=O)N3CCCC3)ccc21`, the activity change, negative = inhibition was 1.72% in assay [1]; 4.43% in assay [2]; -4.62% in assay [3]; 1.63% in assay [4]; 0.514% in assay [5].
`COc1ccc(-c2nnc3n(Cc4ccc(F)cc4)c(=O)c4ccccc4n23)c(OC)c1`: the activity change, negative = inhibition in assay [1] was -5.37%; in assay [2] it was 5.91%; in assay [3], -3.8%; in assay [4], -5.62%; in assay [5], -5.83%.
As for `CCOc1ccc(-c2nn3ncccc3c2-c2ccc(S(C)(=O)=O)cc2)cc1`, the activity change, negative = inhibition in assay [1] is -16.7%; in assay [2], -6.14%; in assay [3], -1.18%; in assay [4] it was -31.9%; in assay [5], -5.13%.
As to `CCOC(=O)c1cc2n(n1)CC(C)(C(=O)NCc1ccccc1)N(Cc1ccc(Cl)cc1)C2=O` (stereo not given), the activity change, negative = inhibition is 0.171% in assay [1]; 0% in assay [2]; 3.66% in assay [3]; 1.14% in assay [4]; -1.08% in assay [5].
As to `COCCCNc1nc2c(S(=O)(=O)c3c(C)cc(C)cc3C)nnn2c2ccccc12`, the activity change, negative = inhibition in assay [1] is -5.84%; in assay [2], 3.35%; in assay [3] it was -6.35%; in assay [4] it was -3.68%; in assay [5] it was -3.93%.
In the same order, the values of `O=C(NCC1CCCO1)N1CCCCCCn2c(nnc2-c2ccc(F)cc2)CC1` (stereo not given) are -0.432%, -9.14%, 0.171%, -8.31% and -2.5%.
For the compound `CC(C)C[C@H](NC(=O)[C@@H]1C[C@@H](n2nnc(C(N)=O)c2C(N)=O)CCN1C(=O)c1cnccn1)C(N)=O`, the activity change, negative = inhibition in assay [1] is -1.89%; in assay [2], -0.289%; in assay [3] it was -1.4%; in assay [4] it was -2.87%; in assay [5], -2.62%.
With `CCCn1c(=O)c2ccccc2n2c(=O)n(CC(=O)c3cccc(Cl)c3)nc12`, the activity change, negative = inhibition is 2.76% in assay [1]; 3.25% in assay [2]; 10.3% in assay [3]; -32.1% in assay [4]; 5.4% in assay [5].
In the same order, the values of `O=C(CCc1nnc2n(CCc3ccccc3)c(=O)c3ccccc3n12)N1CCN(Cc2ccccc2)CC1` are -12.4%, 0%, -3.82%, -24.5% and -1.35%.
In the same order, the values of `Cc1cn2nc(C(=O)NCc3cccnc3)cc2c(=O)[nH]1` are -0.231%, 0.123%, 0.012%, -3.08% and 0.488%.
The like results for `CC(C)(C)c1ccc(/C=C/C(=O)Nc2ccc3c(c2)OCCO3)cc1` were, in that order, 2.15%, 15.1%, 8.72%, -2.47% and 5.35%.
As for `CCN1C(=O)C2CC3(CCN(Cc4cnn(CC)c4C)CC3)CN2C1=O` (stereo not given), the activity change, negative = inhibition in assay [1] is -0.111%; in assay [2], 0.386%; in assay [3], 3.38%; in assay [4] it was 0.864%; in assay [5] it was 0.987%.
Turning to `COc1cc(=O)n2c(c1C(=O)N1CCN(c3ccc(C)cc3C)CC1)CCCC2`, the activity change, negative = inhibition in assay [1] is -2.28%; in assay [2], 1.11%; in assay [3] it was 0.004%; in assay [4], -0.275%; in assay [5] it was 2.26%.
In the same order, the values of `COc1nccnc1-c1cc(NCCN(C)C)nc2[nH]ccc12` are -8.71%, -11.5%, -10.4%, -17.4% and -20.3%.
The like results for `C1=CC2c3c(ccc4ccccc34)NC(c3cccc4ccccc34)C2C1` (stereo not given) were, in that order, 6.11%, 1.96%, -13.6%, -22.5% and -23%.
In the same order, the values of `CCc1ccccc1NS(=O)(=O)c1ccc2[nH]c3c(c2c1)CCCC3` are 1.36%, 0%, 4.72%, -21.2% and 2.46%.
On to `O=C(C1CCCC1)N1CCCC(c2nn[nH]n2)C1` (stereo not given), for which the activity change, negative = inhibition in assay [1] was -0.048%; in assay [2] it was -3.92%; in assay [3], 1.76%; in assay [4], -7.27%; in assay [5], -6.97%.
The like results for `O=C1NC(Cc2ccc(O)cc2)C(=O)N2CCCC12` (stereo not given) were, in that order, -2.25%, -7.28%, 5.28%, -17.1% and -7.36%.
In the same order, the values of `COC(=O)c1cc2n(n1)CC(C)(C(=O)NC1CCCCC1)N(CCc1cccs1)C2=O` (stereo not given) are 1.13%, 4.57%, 7.55%, -3.02% and 0.731%.

The values are drawn from PubChem BioAssay AID1745853 (National Center for Advancing Translational Sciences (NCATS), 2022).
